These are yes or no findings as the source states them, for the method shown. Some binding calls cover weakened binding; strength is not graded here.
Each substance was assayed against Klebsiella pneumoniae σ^54 (Klebsiella pneumoniae) (UniProt P06223) (assay: native gel or EMSA; ADP-AlFx trapping assay: 2.35 μM σ^54, ± 0.3 μM core RNAP, 5 mM NaF, 4 mM ADP in STA buffer, 37 °C; then 10 μM PspF_(1–275) and 0.4 mM AlCl3 for 15 min; native gel, SYPRO Ruby; both purified).
For “PspF_(1–275) F60C (from UniProt P37344 1-275) (domain or fragment)”, the binding was “no binding (tested: 10 μM PspF_(1–275), 2.35 μM σ^54)”. For “PspF_(1–275) G58C (from UniProt P37344 1-275) (domain or fragment)”, the binding was “binds”. For “PspF_(1–275) H50C (from UniProt P37344 1-275) (domain or fragment)”, the binding was “no binding (tested: 10 μM PspF_(1–275), 2.35 μM σ^54)”. “PspF_(1–275) I61C (from UniProt P37344 1-275) (domain or fragment)” was tested, and the binding was “no binding (tested: 10 μM PspF_(1–275), 2.35 μM σ^54)”. In the case of “PspF_(1–275) L52C (from UniProt P37344 1-275) (domain or fragment)”, the binding is reported as “binds”. “PspF_(1–275) P59C (from UniProt P37344 1-275) (domain or fragment)” was tested, and the binding was “binds”. “PspF_(1–275) Q57C (from UniProt P37344 1-275) (domain or fragment)” was tested, and the binding was “binds”. In the case of “PspF_(1–275) R55C (from UniProt P37344 1-275) (domain or fragment)”, the binding is reported as “binds”. “PspF_(1–275) S53C (from UniProt P37344 1-275) (domain or fragment)” was tested, and the binding was “binds”. For “PspF_(1–275) S54C (from UniProt P37344 1-275) (domain or fragment)”, the binding was “binds”. With “PspF_(1–275) S62C (from UniProt P37344 1-275) (domain or fragment)” the binding was “binds”. With “PspF_(1–275) W56A (from UniProt P37344 1-275) (domain or fragment)” the binding was “binds”. “PspF_(1–275) W56C (from UniProt P37344 1-275) (domain or fragment)” was tested, and the binding was “binds”. With “PspF_(1–275) WT (from UniProt P37344 1-275) (domain or fragment)” the binding was “binds”. “PspF_(1–275) Y51C (from UniProt P37344 1-275) (domain or fragment)” was tested, and the binding was “binds”.

— publication PMC3791423
